Source: PubChem BioAssay AID485344 (National Center for Advancing Translational Sciences (NCATS), 2010)
Screen size: about 340,000 compounds; about 6,900 (2%) were called active. Rule as the data show it: active = inhibition above about 30%; inactive = below that, where a call was filed. The entries are a selection whose mix differs from that of the whole data set. The source gives no active or inactive call for entries shown without one.

Target: D(2) dopamine receptor (Homo sapiens) (UniProt P14416)
UniProt P14416, sequence (P14416 whole entry, looked up): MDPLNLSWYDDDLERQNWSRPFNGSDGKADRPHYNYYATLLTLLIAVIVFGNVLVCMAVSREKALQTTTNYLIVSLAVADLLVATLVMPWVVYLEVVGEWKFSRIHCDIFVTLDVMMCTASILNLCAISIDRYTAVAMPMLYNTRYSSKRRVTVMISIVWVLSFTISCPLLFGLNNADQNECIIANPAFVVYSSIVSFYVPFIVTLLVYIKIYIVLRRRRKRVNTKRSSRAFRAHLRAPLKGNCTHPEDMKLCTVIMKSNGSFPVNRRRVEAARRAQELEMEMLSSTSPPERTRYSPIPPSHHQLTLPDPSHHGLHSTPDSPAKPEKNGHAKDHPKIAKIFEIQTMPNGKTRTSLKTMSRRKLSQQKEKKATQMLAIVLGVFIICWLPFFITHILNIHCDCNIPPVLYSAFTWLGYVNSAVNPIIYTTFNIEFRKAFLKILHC
Test: HTS Assay for Allosteric Antagonists of the Human D2 Dopamine Receptor: Primary Screen for Antagonists; also: 0% is about no effect
Settings: HEK293 TREx D2 cells, calcium flux, dopamine EC80; at 10 µM; stronger effect = higher value
Method in brief: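 Antagonism is scored as inhibition of an EC80 dopamine-evoked calcium signal in a force-coupled, tetracycline-inducible HEK293 T-REx D2 line, with compound present 180 s before agonist.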

Row | Compound | inhibition
1 | CC(C)Cn1nc(NC(=O)c2cccc(Cl)c2)c2cc3ccccc3nc21 | 6.11%
2 | CCc1ccccc1NC(=O)c1oc(=O)c2ccccc2c1-c1ccccc1 | 3.06%
3 | NC(=O)c1nc(Nc2ccccc2)sc1NC(=O)c1c(F)cccc1F | -1.73%
4 | CCOC(=O)c1ccc(NC(=O)c2c(NCc3sccc3C)sc3c2CCC(C)C3)cc1 (configuration not stated) | 6.23%
5 | Cc1ccc(C)c(N2CCN(C(=O)CCc3nnc4n(C)c(=O)c5ccccc5n34)CC2)c1 | -4.79%
6 | CN1CCN(C(CNC(=O)C(=O)Nc2ccc(Cl)cc2)c2cccnc2)CC1 (configuration not stated) | -0.427%
7 | CCOCCCNC(=O)c1c[nH]c2ccc(S(=O)(=O)N(C)c3ccc(Cl)cc3F)cc2c1=O | 8.18%
8 | CCOC(=O)c1cccnc1SCC(=O)N(CC)c1cccc(C)c1 | -15%
9 | CC(C)C[C@H](N)c1nnc(SCc2ccc(Cl)cc2Cl)o1 | 11.7%
10 | Cc1ccc(-c2nc(S(=O)(=O)c3ccc(F)cc3)c(N3CCN(c4ccccc4)CC3)o2)cc1 | -14.7%
11 | Cc1oc(-c2ccc(Cl)cc2)nc1CSCC(=O)NC1CCN(Cc2ccccc2)CC1 | active: 56.4%
12 | CC1=C(c2ccc(C(C)C)cc2)S(=O)(=O)N=C1N1CCN(c2ccccc2F)CC1 | 0.662%
13 | CCOc1ccccc1NC(=O)Cn1nnc(C(=O)NCc2cccs2)c1N | -17.7%
14 | CCCCn1c(SCC(=O)c2ccc(OCC)cc2)nc2cc(S(N)(=O)=O)ccc21 | active: 44.7%
15 | O=C(NCc1ccccc1)c1cc(Sc2cccc(Cl)c2)nc2ccccc12 | 19%
16 | CC(=O)N1c2ccccc2C(=O)C1N1CCN(c2ccc(Cl)cc2)CC1 (configuration not stated) | 3.08%
17 | COc1ccc(NCc2cc3cc4c(cc3n(CC(=O)Nc3ccc(C)cc3C)c2=O)OCO4)cc1 | 2.86%
18 | CN(C)S(=O)(=O)c1ccc(Cl)c(NC(=O)CN2CCc3ccccc3C2)c1 | active: 87.3%
19 | CCOC(=O)c1cc(OC(=O)c2ccccc2F)n(-c2ccccc2)n1 | 11.4%
20 | CC1CCc2onc(C(=O)Nc3ccc(Cl)cc3)c2C1 (configuration not stated) | 15.6%
21 | COc1ccc(-c2noc(CNC(=O)c3cc(OC)c(OC)c(OC)c3)n2)cc1 | 8.37%

Row | Compound | inhibition
22 | COc1cccc(-c2nc(-c3ccc(Br)o3)no2)c1 | 3.27%
23 | Cc1[nH]c2ccc(C(=O)NCCCN3CCCCC3)cc2c1C | 3.46%
24 | CC(=O)N1CCC(N(Cc2ccc(C)o2)C(=O)Nc2ccccc2F)CC1 | 13.5%
25 | Cc1nc2c(c(C)c1CCC(=O)NCc1ccc(F)cc1)c(=O)n(C)c(=O)n2C | -1.97%
26 | CCOc1ccccc1NC(=O)CSc1c2c(nc3ccc(Cl)cc13)CCCC2 | -5.32%
27 | CCOC(=O)C1CCCN(S(=O)(=O)c2cc(-c3onc(C)c3C)ccc2OC)C1 (configuration not stated) | 3.62%
28 | CCc1c(-c2ccccc2)nc2ccccc2c1C(=O)NC(C)c1ccccc1 (configuration not stated) | 5.89%
29 | CCOc1ccccc1NC(=O)c1nc(S(=O)(=O)Cc2cccc(C)c2)ncc1Cl | -11.5%
30 | CN(C)c1nc(SCC(=O)Nc2ccccc2)nc(N2CCOCC2)n1 | active: 31.3%
31 | COc1ccccc1C(c1c(O)cc(C)n(Cc2ccco2)c1=O)N1CCCCC1 (configuration not stated) | -11.1%
32 | CCC(Oc1ccccc1F)C(=O)Nc1cc(-c2ccccc2)no1 (configuration not stated) | 6.65%
33 | COc1ccc(C(=O)NCCn2cc(SCC(=O)Nc3ccc4c(c3)OCCO4)c3ccccc32)cc1 | -4.2%
34 | Cc1cccc(N2CCN(S(=O)(=O)c3cc(C(=O)Nc4ccc(Oc5ccccc5)cc4)ccc3F)CC2C)c1 (configuration not stated) | 6.36%
35 | COC(=O)c1ccc(NC(=O)c2c(NCc3cccc(F)c3)sc3c2CCCC3)cc1 | -8.18%
36 | Cc1cc2c(cc1S(=O)(=O)N(CCN(C)C)Cc1ccccc1)OCC(=O)N2 | 9.04%
37 | C=CCn1c(SCC(=O)Nc2ccc(O)cc2)nc2sc(CC)cc2c1=O | active: 31.1%
38 | CCN(CC)c1ccc2cc(-c3nnc(Nc4ccc(C)cc4)s3)c(=O)oc2c1 | -14.5%
39 | COc1ccc2c(C)c(CCC(=O)NCCc3ccccc3)c(=O)oc2c1 | -11.1%
40 | COC(=O)C1=C(CS(=O)(=O)c2ccc(C)cc2C)NC(=O)NC1c1ccc(C)cc1 (configuration not stated) | -0.218%
41 | Cc1cc(C)c(S(=O)(=O)NCc2ccc3c(c2)CCN3C(=O)c2ccccc2)c(C)c1 | 9.49%
42 | Oc1cc2c(cc1CN1CCc3ccccc3C1)OCO2 | active: 32.6%

Row | Compound | inhibition
43 | Cc1nn(-c2ccccc2)c2sc(C(=O)Nc3ccc(Cl)cc3Cl)cc12 | 8.09%
44 | CCCCN(C)CCNC(=O)c1nn(-c2ccc(OC)c(Cl)c2)c(=O)c2c1c1ccccc1n2C | -2.2%
45 | Cc1ccc2c(=O)c(C(=O)c3ccc(F)cc3)cn(CC(=O)NCc3ccco3)c2n1 | active: 33.1%
46 | Cc1cc(OCCN2CCCCCC2)ccc1[N+](=O)[O-] | active: 33.9%
47 | COc1ccc(C(=O)Nc2nnc(SCc3cc(=O)c4cc(C)ccc4[nH]3)s2)cc1OC | -9.87%
48 | Cc1cccn2c(=O)c(C(=O)N3CCN(c4ccccc4F)CC3)cnc12 | 1.36%
49 | Cc1ccc(-n2c(=O)c3ccc(C(=O)NCc4ccco4)cc3n(Cc3ccccc3C#N)c2=O)cc1 | -14.4%
50 | Cc1ccc(NC(=O)Cn2c(=O)n(Cc3ccco3)c(=O)c3ccccc32)c(C)c1 | 2.09%
51 | COc1ccc(NC(=O)c2ccc3c(c2)sc2nc(-c4ccc(OC)cc4)cn23)cc1 | -2.23%
52 | CCN(CC)c1cc2c(cc1F)c(=O)c(S(=O)(=O)c1cccc(C)c1)cn2C | -22.7%
53 | CCOc1ccc(C2CC(=O)N(c3cccc(F)c3)C3=C2C(=O)OC3)cc1 (configuration not stated) | 8.4%
54 | COc1ccc(CCNC(=O)c2ccc(Cn3c(=O)c4ccccc4n(Cc4cccc(Cl)c4)c3=O)cc2)cc1OC | 8.66%
55 | CCOc1ccccc1NC(=O)C(CC)Sc1nc2ccncc2[nH]1 (configuration not stated) | -27.9%
56 | COc1ccc(NCc2cc3cc4c(cc3n(CC(=O)Nc3cc(C)ccc3C)c2=O)OCCO4)cc1 | -9.46%
57 | CC(C)c1ccc(NS(=O)(=O)c2ccc3nc(-c4ccccc4)[nH]c3c2)cc1 | 14.8%
58 | Cc1nn2c(=O)cc(COC(=O)c3ccccc3NC(=O)C(C)Oc3ccccc3)nc2s1 (configuration not stated) | -3.11%
59 | CCOc1ccc(CN2CCc3nc(Nc4ccc5c(c4)OCCO5)ncc3C2)cc1 | -4.88%
60 | O=C(c1ccccc1Cl)N1CCCCC1CCN1CCCCC1 (configuration not stated) | 4.29%
61 | COc1ccc(NC(=O)C(C)N(c2ccccc2)S(C)(=O)=O)cc1 (configuration not stated) | -3.08%
62 | COc1ccc(C)cc1NC(=O)Cn1c(=O)n(Cc2nc(C)no2)c(=O)c2ccccc21 | -3.22%
